# Patent EP4732851A9, “LINKER, ANTIBODY-DRUG CONJUGATE, AND PREPARATION METHOD THEREFOR” (Fudan University, priority 2024, dated 2025)
# B1: FD40-LP5 (conjugate)
# chain: QVQLVESGGGLVKPGGSLRLSCTASETISSTYIMGWHRQAPGKGRELVAVISGDGVTHYADFVKGRFTISRDNAKNTVYLQMNFLRAEDTAVYYCYAAGRWNHWGQGTMVTVSS[letters of human IgG1 Fc with C220S (EU numbers) not shown]
# Legend:
# [1] = Toxicokinetic (TK) detection in cynomolgus monkeys; assay type: in vivo; details: cynomolgus monkey, in vivo, iv
# Method: (§1) Serum Sample Collection: HER2-NDC 1 mg/kg 1-G07-GGFG-Dxd and 1 mg/kg 1-G07-LP5 were administered via tail vein injection to 8-week-old female Balb/c mice. Approximately 100 µL of blood was collected from the orbit at time points 0 min, 5 min, 30 min, 4 h, 8 h, 24 h, 48 h, 72 h, 96 h, 120 h, 168 h, and 192 h post-adminsteration. The blood was left at room temperature for 30 min, then placed at 4°C for 3-4 h, and centrifuged at 1500 rpm for 15 min to collect the upper serum. ELISA detection of antibody conjugate concentration: The anti-Dxd antibody (Abmax Biotechnology, Cat#05-0191-L, whose affinity for LP5 is similar to that for Dxd) was diluted to 2.5 µg/mL with coating buffer and coated onto ELISA plates, 100 µL/well. The plates were sealed and incubated at 4°C overnight. Unbound antigen was removed, and blocking buffer (3% BSA in PBS) was added, 200 µL/well, for blocking at room temperature for 2 h. After the blocking solution was removed, the 3-fold serially diluted test serum samples and 3-fold serially diluted standard samples (starting from 333.33 ng/mL) were added, 100 µL/well, and incubated at room temperature for 2 h. Unbound antibodies were removed, and HRP-labeled secondary antibody diluted 1:8000 was added, 100 µL/well, and incubated at room temperature for 1 h. After removing unbound secondary antibody, TMB substrate solution was added, 150 µL/well, for color development at room temperature in the dark for about 5 min. ELISA stop solution was added, 50 µL/well, to terminate the color reaction. The OD value at 450 nm was measured, and the drug concentration in the serum was analyzed and calculated. The drug concentrations in the serum at different time points were input into Phoenix software, and a non-compartmental model was used to analyze the drug concentration-time related parameters.
# K2477 experiment: 2 cynomolgus monkeys (one male and one female) were administered a single intravenous infusion of 10 mg/kg FD40-GGFG-Dxd (designated as the 10 mg/kg dose group). On day 22, a second intravenous infusion of 30 mg/kg FD40-GGFG-Dxd was administered (designated as the 30 mg/kg dose group). Blood was collected from the forelimb or hindlimb veins before each dose and at 5 min, 1 h, 8 h, 24 h, 48 h, 72 h, 96 h, 120 h, 168 h, 240 h, 336 h, and 504 h after each dose to prepare serum. Pharmacokinetic detection was performed using the method described in Example 14.
# K2504 experiment: 2 cynomolgus monkeys (one male and one female) were administered a single intravenous infusion of 10 mg/kg FD40-LP5 (designated as the 10 mg/kg dose group). On day 22, a second intravenous infusion of 30 mg/kg FD40-LP5 was administered (designated as the 30 mg/kg dose group). […]
# [2] = Exploratory safety assessment in cynomolgus monkeys; assay type: in vivo
# Method: Two cynomolgus monkeys (one male and one female) were administered a single intravenous infusion of 10 mg/kg FD40-LP5, followed by continuous observation for 21 days. On day 22, a second intravenous infusion of 30 mg/kg FD40-LP5 was administered, followed by another 21 days of continuous observation (total 42 days).
# [3] = tested on: HCC1806-luc cells; experiment: HCC1806 intracranial model; assay type: in vivo, Balb/c nude mice; details: 5 mg/kg single dose via tail vein; compared to hIgG1-MMAE group
# Method: An NCI-N87 intracranial model was established to evaluate 1-G07-LP5. NCI-N87-luc cells were resuspended in PBS and adjusted to a concentration of 1×10^8/mL. A microsyringe was used to draw 5 µL of the cell suspension (5×10^5 cells) for inoculation. Female Balb/c nude mice aged 6-7 weeks were anesthetized with Avertin and fixed on a brain stereotaxic instrument. Using the mouse's bregma as the center, the microsyringe needle was moved 2 mm to the right and 0.6 mm upward. After drilling through the skull with a triangular needle, the needle was inserted 4 mm downward, then withdrawn 1 mm, and the tumor cells were injected at a constant speed. […] 9 days later, D-luciferin (150 mg/kg) was injected intraperitoneally, and fluorescence images were acquired using a small animal fluorescence/CT in vivo imaging system to quantify the brain fluorescence signal intensity. Grouping was based on fluorescence signal intensity (Radiance (p/sec/cm^2/sr)) and mouse body weight. […] Fluorescence images were acquired every 1-2 weeks using the small animal fluorescence/CT in vivo imaging system to monitor brain fluorescence signal intensity (Radiance (p/sec/cm^2/sr)) and mouse body weight, and tumor growth curves were plotted.
# An HCC1806 intracranial model was established to evaluate FD40-LP5. […] 7 days later, the mice were randomly grouped (n=4) based on fluorescence signal intensity and body weight. […]
# [4] = Pharmacokinetic detection in mice (ELISA of conjugate in serum); assay type: in vivo, Balb/c mice; details: mouse, in vivo, iv, 1 mg/kg
# Method: as §1
# Similarly, TF-NDC 1 mg/kg FD40-GGFG-Dxd and 1 mg/kg FD40-LP5 were administered via tail vein injection to 8-week-old female Balb/c mice. Approximately 100 µL of blood was collected from the orbit at time points 0 min, 5 min, 30 min, 4 h, 8 h, 24 h, 48 h, 72 h, 96 h, 120 h, 168 h, and 192 h post-administeration, processed for detection and analysis.
# [5] = either dose level (10 mg/kg, 30 mg/kg)
molecule,measurement,setting,value
B1,mean AUC0-t,[1]; 10 mg/kg,7527.15 µg·h/mL
same,mean AUC0-t,[1]; 30 mg/kg,24615.3 µg·h/mL
same,body weight loss,"[2]; during the experiment period, especially at the high dose, slight and reversible",5-10%
same,blood biochemical parameters,[2]; [5],no significant drug-related changes
same,blood coagulation parameters,[2]; [5],no significant drug-related changes
same,hematological parameters,[2]; [5],no significant drug-related changes
same,feeding and body weight indicators,"[2]; intravenous infusion 10 mg/kg, then 30 mg/kg on day 22",Slight and reversible fluctuations
same,clinical status of the animals,"[2]; intravenous infusion 10 mg/kg, then 30 mg/kg on day 22, either dose level",no significant drug-related changes
same,intracranial tumor growth (brain fluorescence signal),[3],completely inhibited tumor growth or caused partial regression
same,mean AUC0-t,[4],531.75 µg·h/mL
same,mean Cmax,[4],16750 ng/mL
same,mean MRTlast,[4],49.12 h
same,mean T1/2,[4],52.29 h
